# Assay results published in the supplement of paper PMC10037445.
# In all, about 2,900 compounds were measured (“NF-kB SEAP reporter activity, fold change vs agonist alone”: median about 0.99, highest 2% from about 2.6 on). The list shows a part of the results.
# Legend:
# RAW-Dual [1] = test: NF-kB SEAP reporter activity, fold change vs agonist alone; cytotoxicity flag (confluency mask): not cytotoxic; higher = enhanced NF-kB activity
# Method in brief: (§1)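 Reporter activity is given as fold change relative to agonist-alone wells. To measure it, 50 nL of library stock was pin-tooled onto RAW-Dual macrophages (50,000 cells/well, DMEM, 384-well plates), a PRR agonist followed 1 h later, and cells stayed at 37 °C, 5% CO2. Twenty hours on, supernatant was assayed for IRF (QuantiLuc luminescence) and NF-κB (QuantiBlue, 620 nm absorbance), and wells under 70% of agonist-control IncuCyte confluency in both mask sets were marked cytotoxic.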
# RAW-Dual [2] = test: NF-kB SEAP reporter activity, fold change vs agonist alone; higher = enhanced NF-kB activity
# Method in brief: as §1
# RAW-Dual [3] = test: NF-kB SEAP reporter activity, fold change vs agonist alone; cytotoxicity flag (confluency mask): cytotoxic (confluency <70% of control); higher = enhanced NF-kB activity
# Method in brief: as §1
# [4] = agonist: ODN 1826 (TLR9) 0.5 ug/mL
# [5] = agonist: Pam2CSK4 (TLR2/6) 0.1 ug/mL
# [6] = agonist: Pam3CSK4 (TLR2/1) 0.1 ug/mL
# [7] = library stock concentration (final ~1000-fold dilution): 10 mM, cytotoxicity flag (confluency mask): not cytotoxic, agonist: Imiquimod (TLR7) […]
# [8] = library stock concentration (final ~1000-fold dilution): 10 mM, cytotoxicity flag (confluency mask): not cytotoxic, agonist: MPLA (TLR4) […]
smiles,measurement,setting,value
CC(=O)Nc1cccc2c1c(Sc1ccc(Cl)cc1)c(C)n2CC(=O)O (library stock concentration (final ~1000-fold dilution): 10 mM),NF-kB SEAP reporter activity,RAW-Dual [1]; agonist: LPS (TLR4) 0.1 ug/mL,1.9
same,NF-kB SEAP reporter activity,RAW-Dual [1]; [4],0.937
same,NF-kB SEAP reporter activity,RAW-Dual [1]; [5],0.971
same,NF-kB SEAP reporter activity,RAW-Dual [1]; [6],1.09
CC(=O)Nc1cccc2c1c(Sc1ccc(Cl)cc1)c(C)n2CC(=O)O,NF-kB SEAP reporter activity,RAW-Dual [2]; [7],0.95
same,NF-kB SEAP reporter activity,RAW-Dual [2]; [8],1.04
O=C(Nc1ccc(OC(F)(F)F)cc1)c1sccc1NCc1ccnc2ccccc12 (library stock concentration (final ~1000-fold dilution): 10 mM),NF-kB SEAP reporter activity,RAW-Dual [1]; agonist: LPS (TLR4) 0.1 ug/mL,2.86
CCCCCCCCCCCCCCCCCCOP(=O)([O-])OC1CC[N+](C)(C)CC1 (library stock concentration (final ~1000-fold dilution): 10 mM water),NF-kB SEAP reporter activity,RAW-Dual [1]; agonist: LPS (TLR4) 0.1 ug/mL,1.3
same,NF-kB SEAP reporter activity,RAW-Dual [1]; [4],1.42
same,NF-kB SEAP reporter activity,RAW-Dual [1]; [5],0.859
same,NF-kB SEAP reporter activity,RAW-Dual [1]; [6],1.17
CCCCCCCCCCCCCCCCCCOP(=O)([O-])OC1CC[N+](C)(C)CC1,NF-kB SEAP reporter activity,"RAW-Dual [2]; library stock concentration (final ~1000-fold dilution): 10 mM water, cytotoxicity flag (confluency mask): not cytotoxic, agonist: Imiquimod (TLR7) […]",1.01
same,NF-kB SEAP reporter activity,"RAW-Dual [2]; library stock concentration (final ~1000-fold dilution): 10 mM water, cytotoxicity flag (confluency mask): not cytotoxic, agonist: MPLA (TLR4) […]",1.27
COS(=O)(=O)[O-].C[N+]1(C)CCC(=C(c2ccccc2)c2ccccc2)CC1,NF-kB SEAP reporter activity,RAW-Dual [2]; [7],1.05
same,NF-kB SEAP reporter activity,RAW-Dual [2]; [8],1.12
COS(=O)(=O)[O-].C[N+]1(C)CCC(=C(c2ccccc2)c2ccccc2)CC1 (library stock concentration (final ~1000-fold dilution): 10 mM),NF-kB SEAP reporter activity,RAW-Dual [1]; agonist: LPS (TLR4) 0.1 ug/mL,0.962
same,NF-kB SEAP reporter activity,RAW-Dual [1]; [4],1.05
same,NF-kB SEAP reporter activity,RAW-Dual [1]; [5],0.968
same,NF-kB SEAP reporter activity,RAW-Dual [1]; [6],1.23
COC(=O)C(c1ccccc1Cl)N1CCc2sccc2C1.O=S(=O)(O)O (centres undefined),NF-kB SEAP reporter activity,RAW-Dual [2]; [7],0.925
same,NF-kB SEAP reporter activity,RAW-Dual [2]; [8],1.1
COC(=O)C(c1ccccc1Cl)N1CCc2sccc2C1.O=S(=O)(O)O (centres undefined) (library stock concentration (final ~1000-fold dilution): 10 mM),NF-kB SEAP reporter activity,RAW-Dual [1]; agonist: LPS (TLR4) 0.1 ug/mL,0.952
same,NF-kB SEAP reporter activity,RAW-Dual [1]; [4],0.705
same,NF-kB SEAP reporter activity,RAW-Dual [1]; [5],0.949
same,NF-kB SEAP reporter activity,RAW-Dual [1]; [6],0.784
CCc1cnn2c(NCc3ccc[n+]([O-])c3)cc(N3CCCCC3CCO)nc12 (centres undefined) (library stock concentration (final ~1000-fold dilution): 10 mM),NF-kB SEAP reporter activity,RAW-Dual [3]; agonist: LPS (TLR4) 0.1 ug/mL,0.193
same,NF-kB SEAP reporter activity,RAW-Dual [3]; [4],0.198
same,NF-kB SEAP reporter activity,RAW-Dual [3]; [5],0.0843
same,NF-kB SEAP reporter activity,RAW-Dual [3]; [6],0.182
CCc1cnn2c(NCc3ccc[n+]([O-])c3)cc(N3CCCCC3CCO)nc12 (centres undefined),NF-kB SEAP reporter activity,"RAW-Dual [2]; library stock concentration (final ~1000-fold dilution): 10 mM, cytotoxicity flag (confluency mask): cytotoxic (confluency <70% of control), agonist: Imiquimod (TLR7) […]",0.308
same,NF-kB SEAP reporter activity,"RAW-Dual [2]; library stock concentration (final ~1000-fold dilution): 10 mM, cytotoxicity flag (confluency mask): cytotoxic (confluency <70% of control), agonist: MPLA (TLR4) […]",0.225
COC(=O)c1cc(O)c(O)c(O)c1,NF-kB SEAP reporter activity,RAW-Dual [2]; [7],0.784
same,NF-kB SEAP reporter activity,RAW-Dual [2]; [8],1.03
COC(=O)c1cc(O)c(O)c(O)c1 (library stock concentration (final ~1000-fold dilution): 10 mM),NF-kB SEAP reporter activity,RAW-Dual [1]; agonist: LPS (TLR4) 0.1 ug/mL,0.987
same,NF-kB SEAP reporter activity,RAW-Dual [1]; [4],0.772
same,NF-kB SEAP reporter activity,RAW-Dual [1]; [5],0.801
same,NF-kB SEAP reporter activity,RAW-Dual [1]; [6],0.761
N#Cc1ccc(-c2c(-c3ncn[nH]3)sc(N3CCOCC3)c2C#N)c(F)c1,NF-kB SEAP reporter activity,RAW-Dual [2]; [7],0.562
same,NF-kB SEAP reporter activity,RAW-Dual [2]; [8],1.94
N#Cc1ccc(-c2c(-c3ncn[nH]3)sc(N3CCOCC3)c2C#N)c(F)c1 (library stock concentration (final ~1000-fold dilution): 10 mM),NF-kB SEAP reporter activity,RAW-Dual [1]; agonist: LPS (TLR4) 0.1 ug/mL,2.39
same,NF-kB SEAP reporter activity,RAW-Dual [1]; [4],0.443
same,NF-kB SEAP reporter activity,RAW-Dual [1]; [5],0.61
same,NF-kB SEAP reporter activity,RAW-Dual [1]; [6],1.06
Cc1cccc(CN2CCN(C(c3ccccc3)c3ccc(Cl)cc3)CC2)c1.Cl.Cl (centres undefined) (library stock concentration (final ~1000-fold dilution): 2 mM),NF-kB SEAP reporter activity,RAW-Dual [1]; agonist: LPS (TLR4) 0.1 ug/mL,1.51
same,NF-kB SEAP reporter activity,RAW-Dual [1]; [4],0.87
same,NF-kB SEAP reporter activity,RAW-Dual [1]; [5],0.931
same,NF-kB SEAP reporter activity,RAW-Dual [1]; [6],0.984
Cc1cccc(CN2CCN(C(c3ccccc3)c3ccc(Cl)cc3)CC2)c1.Cl.Cl (centres undefined),NF-kB SEAP reporter activity,"RAW-Dual [2]; library stock concentration (final ~1000-fold dilution): 2 mM, cytotoxicity flag (confluency mask): not cytotoxic, agonist: Imiquimod (TLR7) […]",0.843
same,NF-kB SEAP reporter activity,"RAW-Dual [2]; library stock concentration (final ~1000-fold dilution): 2 mM, cytotoxicity flag (confluency mask): not cytotoxic, agonist: MPLA (TLR4) […]",1.15
Cc1ccc([N+](=O)[O-])cc1S(=O)(=O)N(C)/N=C/c1cnc2ccc(Br)cn12.Cl (library stock concentration (final ~1000-fold dilution): 2 mM),NF-kB SEAP reporter activity,RAW-Dual [3]; agonist: LPS (TLR4) 0.1 ug/mL,0.339
same,NF-kB SEAP reporter activity,RAW-Dual [3]; [4],0.208
same,NF-kB SEAP reporter activity,RAW-Dual [3]; [5],0.0736
same,NF-kB SEAP reporter activity,RAW-Dual [3]; [6],0.177
Cc1ccc([N+](=O)[O-])cc1S(=O)(=O)N(C)/N=C/c1cnc2ccc(Br)cn12.Cl,NF-kB SEAP reporter activity,"RAW-Dual [2]; library stock concentration (final ~1000-fold dilution): 2 mM, cytotoxicity flag (confluency mask): cytotoxic (confluency <70% of control), agonist: Imiquimod (TLR7) […]",0.154
same,NF-kB SEAP reporter activity,"RAW-Dual [2]; library stock concentration (final ~1000-fold dilution): 2 mM, cytotoxicity flag (confluency mask): cytotoxic (confluency <70% of control), agonist: MPLA (TLR4) […]",0.267
CC(C)CC(NC(=O)C(NC(=O)c1cccc(-c2ccccc2)n1)C(C)O)B(O)O (centres undefined),NF-kB SEAP reporter activity,RAW-Dual [2]; [7],2.29
same,NF-kB SEAP reporter activity,RAW-Dual [2]; [8],0.997
CC(C)CC(NC(=O)C(NC(=O)c1cccc(-c2ccccc2)n1)C(C)O)B(O)O (centres undefined) (library stock concentration (final ~1000-fold dilution): 10 mM),NF-kB SEAP reporter activity,RAW-Dual [1]; agonist: LPS (TLR4) 0.1 ug/mL,0.629
same,NF-kB SEAP reporter activity,RAW-Dual [1]; [4],1.53
same,NF-kB SEAP reporter activity,RAW-Dual [1]; [5],0.976
same,NF-kB SEAP reporter activity,RAW-Dual [1]; [6],0.594
COC(=O)CC1CC(c2ccc(O)cc2)=NO1 (centres undefined),NF-kB SEAP reporter activity,RAW-Dual [2]; [7],0.963
same,NF-kB SEAP reporter activity,RAW-Dual [2]; [8],1.05
COC(=O)CC1CC(c2ccc(O)cc2)=NO1 (centres undefined) (library stock concentration (final ~1000-fold dilution): 10 mM),NF-kB SEAP reporter activity,RAW-Dual [1]; agonist: LPS (TLR4) 0.1 ug/mL,1.1
same,NF-kB SEAP reporter activity,RAW-Dual [1]; [4],0.966
same,NF-kB SEAP reporter activity,RAW-Dual [1]; [5],0.999
same,NF-kB SEAP reporter activity,RAW-Dual [1]; [6],0.998
COc1ccc(S(=O)(=O)N(CCO)c2ccccc2CN(C)CC=Cc2ccc(Cl)cc2)cc1 (library stock concentration (final ~1000-fold dilution): 10 mM),NF-kB SEAP reporter activity,RAW-Dual [1]; agonist: LPS (TLR4) 0.1 ug/mL,0.958
same,NF-kB SEAP reporter activity,RAW-Dual [1]; [4],0.257
same,NF-kB SEAP reporter activity,RAW-Dual [1]; [5],0.537
same,NF-kB SEAP reporter activity,RAW-Dual [1]; [6],0.372
COc1ccc(S(=O)(=O)N(CCO)c2ccccc2CN(C)CC=Cc2ccc(Cl)cc2)cc1,NF-kB SEAP reporter activity,RAW-Dual [2]; [7],0.802
same,NF-kB SEAP reporter activity,RAW-Dual [2]; [8],1.07
CC(=O)OCC1=C(C(=O)O)N2C(=O)C(NC(=O)Cc3cccs3)C2SC1 (centres undefined),NF-kB SEAP reporter activity,RAW-Dual [2]; [7],0.9
same,NF-kB SEAP reporter activity,RAW-Dual [2]; [8],0.995
CC(=O)OCC1=C(C(=O)O)N2C(=O)C(NC(=O)Cc3cccs3)C2SC1 (centres undefined) (library stock concentration (final ~1000-fold dilution): 10 mM),NF-kB SEAP reporter activity,RAW-Dual [1]; agonist: LPS (TLR4) 0.1 ug/mL,1.21
same,NF-kB SEAP reporter activity,RAW-Dual [1]; [4],0.944
same,NF-kB SEAP reporter activity,RAW-Dual [1]; [5],1.24
same,NF-kB SEAP reporter activity,RAW-Dual [1]; [6],1.02
